Test results reported in the supplement of paper PMC4967469.
A lower IC50 marks a more sensitive line; fits outside the tested doses are given as limits. The AUC spans the tested range (256-fold, ending at the top dose) of the same fit; the more sensitive the line, the further below 1. For some assays here: An inferred top dose is not printed in the source and was worked back from the curve model. For some assays here: An entry number marks a drug with two screens in the source, which often give different values.

Columns and labels:
Assay in all cases: Viability of human cancer cell lines after 72 h of drug (GDSC screen)
[1] = compound: CC(=O)O[C@@]12CO[C@@H]1C[C@H](O)[C@@]1(C)C(=O)[C@H](O)C3=C(C)[C@@H](OC(=O)[C@H](O)[C@@H](NC(=O)OC(C)(C)C)c4ccccc4)C[C@@](O)([C@@H](OC(=O)c4ccccc4)[C@H]21)C3(C)C [Docetaxel]; details: top dose 0.0125 µM
Experimental: (§1)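 Human cancer cell lines in 384-well plates, medium with 10% serum, drug for 72 h over a 256-fold dose range (nine 2-fold or five 4-fold steps up to the top dose). Adherent lines were fixed and stained with the nucleic acid dye Syto60, suspension lines read with resazurin; signal relative to control wells, capped at 0 and 100%. One two-parameter sigmoid per drug and line, fitted in a mixed model over all curves with the slope shared within a line.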

[2] = compound: CC1(C)CNc2cc(NC(=O)c3cccnc3NCc3ccncc3)ccc21 [AMG-706]; details: top dose 2 µM; top dose inferred
Experimental: as §1

[3] = compound: CC1=C2C[C@H]3[C@@H](CC=C4C[C@@H](O)CC[C@@]43C)[C@@H]2CC[C@]12O[C@@H]1C[C@H](C)CN[C@H]1[C@H]2C [Cyclopamine]; details: top dose 16 µM; top dose inferred
Experimental: as §1

[4] = compound: CCOc1nc(NC(=O)Cc2cc(OC)ccc2OC)cc(N)c1C#N [JNK Inhibitor VIII]; details: top dose 10 µM; top dose inferred
Experimental: as §1

[5] = compound: CN1CCN(c2ccc([N+](=O)[O-])c3no[n+]([O-])c23)CC1 [NSC-207895]; details: top dose 20 µM; top dose inferred
Experimental: as §1

[6] = compound: COC(=O)[C@H](CCSC)NC(=O)c1ccc(NC[C@@H](N)CS)cc1-c1ccccc1 [FTI-277]; details: top dose 1.024 µM; top dose inferred
Experimental: as §1

[7] = compound: COCC[n+]1c2c(n(Cc3cnccn3)c1C)C(=O)c1ccccc1C2=O [YM155]; details: top dose 5.12 µM
Experimental: as §1

[8] = compound: COc1cc(N2CCC(N3CCN(C)CC3)CC2)ccc1Nc1ncc(Cl)c(Nc2ccccc2S(=O)(=O)C(C)C)n1 [NVP-TAE684]; details: top dose 2 µM
Experimental: as §1

[9] = compound: C[C@]1(O)C[C@@H](c2nc(-c3ccc4ccc(-c5ccccc5)nc4c3)c3c(N)nccn32)C1 [OSI-906]; details: top dose 2.56 µM; top dose inferred
Experimental: as §1

[10] = compound: Cc1[nH]c(/C=C2\C(=O)Nc3ccc(S(=O)(=O)Cc4c(Cl)cccc4Cl)cc32)c(C)c1C(=O)N1CCC[C@@H]1CN1CCCC1 [PHA-665752]; details: top dose 2 µM
Experimental: as §1

[11] = compound: Cc1ccc(C(=O)N(CCCN)[C@@H](c2nc3cc(Cl)ccc3c(=O)n2Cc2ccccc2)C(C)C)cc1 [SB-715992]; details: top dose 0.128 µM; top dose inferred
Experimental: as §1

[12] = compound: Cc1sc2c(c1C)C(c1ccc(Cl)cc1)=N[C@@H](CC(=O)OC(C)(C)C)c1nnc(C)n1-2 [JQ1]
Experimental: as §1

[13] = compound: O=C(/C=C/c1cccc(S(=O)(=O)Nc2ccccc2)c1)NO [Belinostat]; details: top dose 20 µM; top dose inferred
Experimental: as §1

[14] = compound: OCCCNc1cc(-c2ccnc(Nc3cccc(Cl)c3)n2)ccn1 [CGP-60474]; details: top dose 0.256 µM; top dose inferred
Experimental: as §1

[15] = compound: c1ccc2c(CCNc3ccc(Nc4ccncc4)cc3)c[nH]c2c1 [JNJ-26854165]; details: top dose 10 µM
Experimental: as §1

[16] = top dose 1 µM, screen: GDSC drug entry 1218, top dose inferred
[17] = top dose 2.56 µM, screen: GDSC drug entry 163

Cell Line	AUC [1]	IC50 [1] [nM]	AUC [2]	IC50 [2] [nM]	AUC [3]	IC50 [3] [nM]	AUC [4]	IC50 [4] [nM]	AUC [5]	IC50 [5] [nM]	AUC [6]	IC50 [6] [nM]	AUC [7]	IC50 [7] [nM]	AUC [8]	AUC [9]	IC50 [9] [nM]	AUC [10]	IC50 [10] [nM]	AUC [11]	IC50 [11] [nM]	AUC [12, 16]	IC50 [12, 16] [nM]	AUC [12, 17]	IC50 [12, 17] [nM]	AUC [13]	IC50 [13] [nM]	AUC [14]	IC50 [14] [nM]	AUC [15]	IC50 [15] [nM]	IC50 [8] [nM]
ALL-PO (lymphoblastic leukaemia, suspension)	0.832	8.66	0.97	> 2000	0.812	9200	0.91	> 10000	0.735	6120	0.971	> 1020	0.06	< 20	0.603	0.889	> 2560	0.706	496	0.736	39.6	0.973	> 1000	0.608	323	0.113	< 78.1	0.729	75.1	0.457	475	
ALL-SIL (T-cell leukaemia, suspension)	0.775	4.25	0.986	> 2000	0.971	> 16000	0.987	> 10000	0.847	11700	0.982	> 1020	0.42	200	0.675	0.742	699	0.936	> 2000	0.619	16.2	0.98	> 1000	0.607	300	0.154	134	0.763	80.2			355
BB30-HNC (head and neck, adherent)	0.505	0.805	0.986	> 2000	0.92	> 16000	0.966	> 10000	0.922	> 20000	0.944	> 1020	0.055	< 20	0.765	0.92	> 2560	0.98	> 2000	0.663	22.5			0.378	74.6	0.507	1310	0.644	39.6	0.808	5030	715
BB49-HNC (head and neck, adherent)	0.659	2.59	0.973	> 2000	0.977	> 16000	0.975	> 10000	0.952	> 20000	0.975	> 1020	0.466	250	0.939	0.806	1990	0.95	> 2000	0.97	> 128	0.969	> 1000	0.832	> 2560	0.703	5950	0.7	74.6	0.847	> 10000	> 2000
COR-L88 (small cell lung carcinoma, adherent)	0.952	> 12.5	0.985	> 2000	0.941	> 16000	0.986	> 10000	0.788	10600	0.985	> 1020			0.985	0.979	> 2560	0.972	> 2000	0.875	> 128	0.983	> 1000	0.955	> 2560	0.39	585	0.872	> 256	0.941	> 10000	> 2000
H-EMC-SS (chondrosarcoma, adherent)			0.829	1770	0.981	> 16000	0.92	> 10000	0.816	15500	0.972	> 1020	0.213	34.6	0.698	0.84	> 2560	0.968	> 2000	0.932	> 128			0.958	> 2560	0.762	9200	0.902	> 256	0.922	> 10000	535
HL-60 (acute myeloid leukaemia, suspension)	0.835	7.07	0.988	> 2000	0.99	> 16000	0.98	> 10000	0.852	13000	0.985	> 1020	0.022	< 20	0.732	0.765	846	0.99	> 2000	0.823	65.2					0.296	357	0.798	108	0.956	> 10000	527
LNCaP-Clone-FGC (prostate, adherent)			0.982	> 2000	0.972	> 16000	0.981	> 10000	0.914	> 20000	0.979	> 1020	0.143	< 20	0.935	0.973	> 2560	0.967	> 2000	0.767	54.3	0.977	> 1000	0.726	778	0.203	142	0.94	> 256	0.63	1500	> 2000
